# Measurements published in PubChem BioAssay AID2675 (National Center for Advancing Translational Sciences (NCATS), 2010).
# Hit rate of the full screen: of about 280,000 compounds, about 100 (0.036%) were called active. This list was built around the results that the source calls inconclusive (neither active nor inactive); the mix of calls is not that of the screen. The call rests on the fitted dose curve; in most records, active means well fitted inhibition curve with a large enough effect in the signal ratio, with a control signal flat (not every such curve was filed as active); inconclusive means small, poorly fitted or top-dose-only effect, or effect the other way, or a change in a side signal; inactive means no such curve, though single readings can be large or run the other way; the % refers to the signal ratio. Potencies of inconclusive entries are doubtful fits and often do not repeat. “Side channel” marks fits to a control or component signal instead of the main read-out.
# Target: Muscleblind-like protein 1 (Homo sapiens) (UniProt Q9NR56)
# Sequence of UniProt Q9NR56 (Q9NR56 whole entry, looked up): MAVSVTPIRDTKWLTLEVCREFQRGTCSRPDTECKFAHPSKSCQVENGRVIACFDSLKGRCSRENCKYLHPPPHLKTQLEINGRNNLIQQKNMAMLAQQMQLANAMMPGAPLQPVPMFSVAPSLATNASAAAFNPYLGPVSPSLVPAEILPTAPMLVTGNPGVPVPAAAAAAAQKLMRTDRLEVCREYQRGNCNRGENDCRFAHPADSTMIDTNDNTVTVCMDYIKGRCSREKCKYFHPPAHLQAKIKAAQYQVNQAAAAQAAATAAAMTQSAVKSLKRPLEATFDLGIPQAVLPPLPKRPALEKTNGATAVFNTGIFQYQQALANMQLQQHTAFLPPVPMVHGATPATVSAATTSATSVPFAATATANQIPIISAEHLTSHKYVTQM
# Test: qHTS Assay for Inhibitors of MBNL1-poly(CUG) RNA binding
# Conditions: TR-FRET MBNL1-His/biotin-(CUG)12 binding, 665/545 ratio; series mostly up to 57.5 µM
# How it was run: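 Ratiometric TR-FRET (665 over 545 nm, excitation 340 nm) tracks disruption of MBNL1-His/biotin-(CUG)12 complex after 60 min at room temperature, with compounds at 92 nM to 58 uM final.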
# Potency means the concentration at half of the fitted maximal effect; tags describe the fitted curve by direction and shape or compound fluorescence and quenching.
row,Compound,Potency
1,O=C(OCc1cccc([N+](=O)[O-])c1)c1cnccn1,"inconclusive: 20 µM [quencher, side channel, partial curve]"
2,COC(=O)CCCC1=CC2=C(c3ccccc3)C(=O)C(C)(OC(=O)C3CCCC3)C(=O)C2=CN1Cc1ccc2c(c1)OCO2 (stereo unspecified),"inconclusive: 35.5 µM [quencher, side channel, single point]"
3,CCOCc1nnc(NC(=O)CSc2ccccc2)s1,inactive
4,CCN(Cc1ccccc1)c1ccc(/C=C(\C#N)c2ccccn2)cc1,inactive
5,O=C(CSc1nnnn1-c1ccccc1)N1N=CCC1c1ccccc1 (stereo unspecified),"inconclusive: 1 µM [fluorescent, side channel, partial curve]"
6,CCC(=O)Nc1ccc(-c2nnc(SCC(=O)N3CCCCC3)n2C)cc1,inactive
7,Cc1ccc(N(C(=O)Nc2ccccc2)C2=NCC(C)S2)cc1 (stereo unspecified),"inconclusive: 4.47 µM [quencher, side channel, single point]"
8,CN1C(=O)c2cccc3c(S(=O)(=O)NCCc4ccccc4)ccc1c23,"inconclusive: 28.2 µM [quencher, side channel, single point]"
9,Cc1nc(N)sc1-c1csc(Nc2cccc(C(=O)O)c2)n1,"inconclusive: 17.8 µM [quencher, side channel, partial curve]"
10,COC(CNC(=O)CNC(=S)N(Cc1ccccc1)Cc1cccs1)OC,inactive
11,O=C(CCN1C(=O)c2cccc3cccc(c23)C1=O)N1CCN(Cc2ccc3c(c2)OCO3)CC1,"inconclusive: 5.62 µM [quencher, side channel, partial curve]"
12,CCOC(=O)N1CCN(C(=O)C(C)c2ccc([N+](=O)[O-])cc2)CC1 (stereo unspecified),"inconclusive: 25.1 µM [quencher, side channel, partial curve]"
13,Cc1cc(C)c(C)c(S(=O)(=O)NCCCN2CCCC2=O)c1C,inactive
14,O=C(O)c1ccc(N2C(=O)c3cccnc3C2=O)cc1,"inconclusive: 25.1 µM [quencher, side channel, single point]"
15,COC(=O)c1ccc(NC(=S)N2CCN(Cc3cccc(C)c3)CC2)cc1,inactive
16,Cc1ccn2c(NC3CCCCC3)c(C(C)C)nc2c1,inactive
17,CCCCNc1nc(N)ncc1[N+](=O)[O-],"inconclusive: 11.2 µM [quencher, side channel, partial curve]"
18,O=C(NCc1ccc2c(c1)OCO2)c1ccc2c(c1)C(=O)N(Cc1cccnc1)C2=O,"inconclusive: 15.8 µM [quencher, side channel, partial curve]"
19,O=C(CNS(=O)(=O)c1ccc([N+](=O)[O-])cc1)N/N=C\c1ccc(O)cc1,"inconclusive: 25.1 µM [quencher, side channel, partial curve]"
20,COc1ccc(C(=O)c2cc3cccc(OC)c3o2)cc1,"inconclusive: 20 µM [quencher, partial curve]"
21,NCCCCCC(=O)N/N=C/c1ccc2nccnc2c1,"inconclusive: 10 µM [quencher, side channel, partial curve]"

row,Compound,Potency
1,CCn1cc(C(=O)O)c(=O)c2cc(F)c(N3CCN(C(=S)NC(=O)c4ccccc4)CC3)cc21,inactive
2,COc1cc(CNc2ccc(O)cc2)cc(Br)c1OCc1ccccc1F,"inconclusive: 22.4 µM [quencher, side channel, single point]"
3,O=C(C1CCN(S(=O)(=O)c2cccc3nsnc23)CC1)N1CCN(c2ccccc2F)CC1,"inconclusive: 15.8 µM [quencher, partial curve]"
4,O=C(Nc1ccc(Oc2cccnc2)cc1)c1ccccc1F,inactive
5,CCOCCCn1c(=NC(=O)c2cccnc2)c(C(=O)OCC)cc2c(=O)n3ccccc3nc21,"inconclusive: 14.1 µM [quencher, side channel, partial curve]"
6,c1csc(-c2ccc(N3CCOCC3)nn2)c1,"inconclusive: 20 µM [quencher, side channel, single point]"
7,CN(CC(=O)O/N=C(\N)c1cccc([N+](=O)[O-])c1)S(=O)(=O)c1ccccc1,"inconclusive: 15.8 µM [quencher, side channel, partial curve]"
8,O=C(N/N=C/c1ccccn1)c1ccc([N+](=O)[O-])cc1,"inconclusive: 14.1 µM [quencher, partial curve]"
9,Cc1ccc(C2=NN(C(=O)CCC(=O)O)C(c3cccc([N+](=O)[O-])c3)C2)cc1 (stereo unspecified),"inconclusive: 15.8 µM [quencher, partial curve]"
10,Clc1nnc(Cl)c2c1ncn2Cc1ccccc1,inactive
11,COc1cc([N+](=O)[O-])ccc1NC(=O)Nn1cnnc1,"inconclusive: 15.8 µM [quencher, side channel, partial curve]"
12,O=C(O)CCC(=O)NNc1nc2ccccc2nc1-c1ccccc1,"inconclusive: 12.6 µM [quencher, partial curve]"
13,Cc1ccc(NC(=S)N2CCCCC2)cc1C,inactive
14,CCSc1cc(N2CCCC2)nc(-c2cccc(C)c2)n1,"inconclusive: 7.94 µM [fluorescent, side channel, partial curve]"
15,Cc1ccc(NC(=S)Nc2ccc3nc(-c4ccccn4)c(-c4ccccn4)nc3c2)cc1C,"inconclusive: 14.1 µM [quencher, side channel, single point]"
16,O=S(=O)(c1cccc2nsnc12)N1CCCCC1,"inconclusive: 22.4 µM [quencher, side channel, partial curve, poor fit]"
17,COc1ccc(C2C3=C(Nc4ncnn42)c2ccccc2CC3)cc1OC (stereo unspecified),inactive
18,CC1CCC(NC(=O)Cn2c3c(c(-c4ccccc4Cl)cc2=O)CCC3)CC1 (stereo unspecified),"inconclusive: 1 µM [quencher, side channel, full curve]"
19,CC1CCCCN1C(=O)Cn1cc(C#N)c2ccccc21 (stereo unspecified),"inconclusive: 10 µM [quencher, side channel, partial curve]"
20,CCOC(=O)C1CCN(C(=O)COc2ccc([N+](=O)[O-])cc2)CC1,"inconclusive: 12.6 µM [quencher, side channel, partial curve]"
21,N#Cc1cc2c(=O)n3ccccc3nc2n(CCCN2CCOCC2)c1=O,"inconclusive: 17.8 µM [quencher, side channel, partial curve]"

row,Compound,Potency
1,N#Cc1ccccc1Sc1ccccc1C(=O)OCC(=O)NC1CCCCC1,"inconclusive: 28.2 µM [fluorescent, side channel, partial curve]"
2,Cc1cc(C)n(CC(=O)N/N=C/c2cc(Br)cc([N+](=O)[O-])c2O)n1,inactive
3,COC(=O)c1cccc(S(=O)(=O)N2CCC(n3nnc4cc(F)ccc43)CC2)c1,"inconclusive: 0.794 µM [quencher, side channel, single point]"
4,CC(C)(C)C(=O)Nc1ccc(Sc2ccc([N+](=O)[O-])cc2)cc1,"inconclusive: 35.5 µM [quencher, side channel, partial curve]"
5,CCOC(=O)N1CCN(c2cc(NCCO)c([N+](=O)[O-])c3nonc23)CC1,"inconclusive: 2.51 µM [quencher, side channel, full curve]"
6,CCCCCN1CN(S(=O)(=O)c2cccs2)c2nc3ccccc3nc21,"inconclusive: 39.8 µM [quencher, side channel, partial curve]"
7,COC(=O)C(CC(C)C)NC(=O)c1ccc([N+](=O)[O-])cc1 (stereo unspecified),"inconclusive: 15.8 µM [quencher, side channel, partial curve]"
8,COc1cc(O)oc1C=Nc1ccc(C(=O)O)cc1,"inconclusive: 35.5 µM [quencher, partial curve]"
9,NC(=O)CSC1=N/C(=C\c2ccco2)C(=O)N1c1ccc(OC(F)F)cc1,"inconclusive: 28.2 µM [quencher, side channel, single point]"
10,CC1(C)CC(=O)C=C(Nc2ccc([N+](=O)[O-])cc2)C1,"inconclusive: 7.94 µM [quencher, side channel, partial curve]"
11,CCN(CC)CCSc1nnc2c3ccccc3n(Cc3ccccc3)c2n1,"inconclusive: 35.5 µM [quencher, side channel, single point]"
12,C/C(=N\NC(=O)c1c(Cl)c(C)nn1C)c1cccc(NC(=O)COc2ccc(Cl)cc2)c1,inactive
13,O=C(/C=C/c1ccccc1)N1CCN(c2ccc([N+](=O)[O-])c(N3CCOCC3)c2)CC1,"inconclusive: 14.1 µM [quencher, side channel, partial curve]"
14,O=c1[nH]c(-[n+]2ccccc2)c(/C=N/N=C(\[O-])c2ccccc2)s1,"inconclusive: 15.8 µM [quencher, side channel, partial curve]"
15,CN(C)C(=S)NC(=NCc1ccc([N+](=O)[O-])cc1)c1ccccc1,"inconclusive: 11.2 µM [quencher, side channel, partial curve]"
16,O=C(COC(=O)c1cc(-c2cccs2)nc2ccccc12)NC1CCS(=O)(=O)C1 (stereo unspecified),"inconclusive: 12.6 µM [quencher, side channel, partial curve]"
17,CCc1ccc(NC(=O)[C@H](NC(=O)[C@@H]2Cc3ccccc3CN2)c2ccccc2)cc1,inactive
18,O=C(CO/N=C/c1ccccc1Cl)N1CCCc2ccccc21,"inconclusive: 0.141 µM [fluorescent, side channel, full curve, poor fit]"
19,O=C(Nc1cccc(Cl)c1)c1ccc(NCCCN2CCOCC2)c([N+](=O)[O-])c1,"inconclusive: 11.2 µM [quencher, side channel, partial curve]"
